Tested on: L1210 lymphoblastic leukemia cells
Test: Mouse model of L1210 leukemia
Conditions: by day 28
Procedure: Because of its inhibitory activity on the growth of numerous cancer cells, compound 1436 was evaluated in a classical mouse model of leukemia (Baker et al., Cancer Res. 53, 1993, 3052-3057). C57B mice were inoculated with L1210 lymphoblastic leukemia cells at an inoculum that causes leukemia in 100% of animals. Mice received compound 1436 at 1, 5, 10 mg/kg every 3 days intraperitoneally.
Of particular interest is the hematological profile determined during the course of treatment. Animals were treated with cisplatin and compound 1436.

Q: How did the “Hematological profile during treatment” value turn out when CC(CC[C@@H](OS(=O)(=O)O)C(C)C)[C@H]1CCC2C3C(CC[C@@]21C)[C@@]1(C)CC[C@H](NCCCNCCCCNCCCN)C[C@@H]1C[C@H]3O (stereo partly shown) [Compound 1436] was run?
A: near normal hematocrit, with evidence of a robust granulocyte count

From patent US6962909B2, “Treatment of neovascularization disorders with squalimine” (Genaera Corporation, priority 1995, dated 2005)
